# Test results taken from the supplement of paper PMC8728848.
# Some of the results follow.
# How the values were obtained:
# Experiment in all cases: glycan array binding signal (z-score within array); higher = stronger binding
# Conditions in all cases: glycan notation: IUPAC condensed, linker removed
# [1] = biological target: Neu5Ac(a2-6)Gal(b1-4)GlcNAc(b1-2)Man(a1-3)[Man(a1-6)]Man(b1-4)GlcNAc(b1-4)GlcNAc
# Procedure, shortened: (§1)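 Arrays were curated from the Consortium for Functional Glycomics database, 3228 in total, and kept only where the protein sequence was available. Binding is expressed as a within-array Z-score. This score was averaged across arrays of the same protein sequence at different concentrations or buffers and across linkers, and negative values can be read as non-binding.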
# [2] = biological target: Neu5Ac(a2-6)Gal(b1-4)GlcNAc(b1-2)Man(a1-3)[Neu5Ac(a2-3)Gal(b1-4)GlcNAc(b1-2)Man(a1-6)]Man(b1-4)GlcNAc(b1-4)GlcNAc
# Procedure, shortened: as §1
# [3] = biological target: Neu5Ac(a2-6)Gal(b1-4)GlcNAc(b1-2)Man(a1-3)[Neu5Ac(a2-6)Gal(b1-4)GlcNAc(b1-2)Man(a1-6)]Man(b1-4)GlcNAc(b1-4)GlcNAc
# Procedure, shortened: as §1
# [4] = biological target: Neu5Ac(a2-6)Gal(b1-4)GlcNAc(b1-2)Man(a1-3)[Neu5Ac(a2-6)Gal(b1-4)GlcNAc(b1-2)Man(a1-6)]Man(b1-4)GlcNAc(b1-4)[Fuc(a1-6)]GlcNAc
# Procedure, shortened: as §1
# [5] = biological target: Neu5Ac(a2-6)Gal(b1-4)GlcNAc(b1-2)Man(a1-6)Man(b1-4)GlcNAc(b1-4)GlcNAc
# Procedure, shortened: as §1
# [6] = biological target: Neu5Ac(a2-6)Gal(b1-4)GlcNAc(b1-2)Man(a1-6)[Gal(b1-4)GlcNAc(b1-2)Man(a1-3)]Man(b1-4)GlcNAc(b1-4)GlcNAc
# Procedure, shortened: as §1
# [7] = biological target: Neu5Ac(a2-6)Gal(b1-4)GlcNAc(b1-2)Man(a1-6)[GlcNAc(b1-2)Man(a1-3)]Man(b1-4)GlcNAc(b1-4)GlcNAc
# Procedure, shortened: as §1
# [8] = biological target: Neu5Ac(a2-6)Gal(b1-4)GlcNAc(b1-2)Man(a1-6)[Man(a1-3)]Man(b1-4)GlcNAc(b1-4)GlcNAc
# Procedure, shortened: as §1
# [9] = biological target: Neu5Ac(a2-6)Gal(b1-4)GlcNAc(b1-2)[Neu5Ac(a2-6)Gal(b1-4)GlcNAc(b1-4)]Man(a1-3)[GlcNAc(b1-4)][Neu5Ac(a2-6)Gal(b1-4)GlcNAc(b1-2)[Neu5Ac(a2-6)Gal(b1-4)GlcNAc(b1-6)]Man(a1-6)]Man(b1-4)GlcNAc(b1-4)GlcNAc
# Procedure, shortened: as §1
# [10] = biological target: Neu5Ac(a2-6)Gal(b1-4)GlcNAc(b1-2)[Neu5Ac(a2-6)Gal(b1-4)GlcNAc(b1-4)]Man(a1-3)[GlcNAc(b1-4)][Neu5Ac(a2-6)Gal(b1-4)GlcNAc(b1-4)Man(a1-6)]Man(b1-4)GlcNAc(b1-4)GlcNAc
# Procedure, shortened: as §1
# [11] = biological target: Neu5Ac(a2-6)Gal(b1-4)GlcNAc(b1-2)[Neu5Ac(a2-6)Gal(b1-4)GlcNAc(b1-6)]Man(a1-6)[Neu5Ac(a2-6)Gal(b1-4)GlcNAc(b1-2)Man(a1-3)][GlcNAc(b1-4)]Man(b1-4)GlcNAc(b1-4)GlcNAc
# Procedure, shortened: as §1
# [12] = biological target: Neu5Ac(a2-6)Gal(b1-4)GlcNAc(b1-3)Gal(b1-3)GlcNAc
# Procedure, shortened: as §1
# [13] = biological target: Neu5Ac(a2-6)Gal(b1-4)GlcNAc(b1-3)Gal(b1-4)GlcNAc
# Procedure, shortened: as §1
# [14] = biological target: Neu5Ac(a2-6)Gal(b1-4)GlcNAc(b1-3)Gal(b1-4)GlcNAc(b1-2)Man(a1-3)[Neu5Ac(a2-6)Gal(b1-4)GlcNAc(b1-3)Gal(b1-4)GlcNAc(b1-2)Man(a1-6)]GalNAc
# Procedure, shortened: as §1
# [15] = biological target: Neu5Ac(a2-6)Gal(b1-4)GlcNAc(b1-3)Gal(b1-4)GlcNAc(b1-3)Gal(b1-4)GlcNAc
# Procedure, shortened: as §1
# [16] = biological target: Neu5Ac(a2-6)Gal(b1-4)GlcNAc(b1-3)Gal(b1-4)GlcNAc(b1-3)Gal(b1-4)GlcNAc(b1-2)Man(a1-3)[Neu5Ac(a2-6)Gal(b1-4)GlcNAc(b1-3)Gal(b1-4)GlcNAc(b1-3)Gal(b1-4)GlcNAc(b1-2)Man(a1-6)]GalNAc
# Procedure, shortened: as §1
# [17] = biological target: Neu5Ac(a2-6)Gal(b1-4)GlcNAc(b1-3)Gal(b1-4)GlcNAc(b1-3)GalNAc
# Procedure, shortened: as §1
# [18] = biological target: Neu5Ac(a2-6)Gal(b1-4)GlcNAc(b1-3)Gal(b1-4)GlcNAc(b1-3)[Neu5Ac(a2-6)Gal(b1-4)GlcNAc(b1-3)Gal(b1-4)GlcNAc(b1-6)]GalNAc
# Procedure, shortened: as §1
# [19] = biological target: Neu5Ac(a2-6)Gal(b1-4)GlcNAc(b1-3)Gal(b1-4)GlcNAc(b1-6)[Gal(b1-3)]GalNAc
# Procedure, shortened: as §1
# [20] = biological target: Neu5Ac(a2-6)Gal(b1-4)GlcNAc(b1-3)Gal(b1-4)[Fuc(a1-3)]GlcNAc(b1-3)Gal(b1-4)[Fuc(a1-3)]GlcNAc
# Procedure, shortened: as §1
# [21] = biological target: Neu5Ac(a2-6)Gal(b1-4)GlcNAc(b1-3)GalNAc
# Procedure, shortened: as §1
# [22] = biological target: Neu5Ac(a2-6)Gal(b1-4)GlcNAc(b1-3)[Neu5Ac(a2-6)Gal(b1-4)GlcNAc(b1-6)]GalNAc
# Procedure, shortened: as §1
# [23] = biological target: Neu5Ac(a2-6)Gal(b1-4)GlcNAc(b1-6)GalNAc
# Procedure, shortened: as §1
# [24] = biological target: Neu5Ac(a2-6)Gal(b1-4)GlcNAc(b1-6)[Gal(b1-3)GlcNAc(b1-3)]Gal(b1-4)Glc
# Procedure, shortened: as §1
# [25] = biological target: Neu5Ac(a2-6)Gal(b1-4)GlcNAc(b1-6)[Gal(b1-3)]GalNAc
# Procedure, shortened: as §1
# [26] = biological target: Neu5Ac(a2-6)Gal(b1-4)GlcNAc6S
# Procedure, shortened: as §1
# Neu5Ac(a2-6)GalNAc = biological target: Neu5Ac(a2-6)GalNAc
# Procedure, shortened: as §1
# [27] = biological target: Neu5Ac(a2-6)GalNAc(b1-4)GlcNAc
# Procedure, shortened: as §1
# [28] = biological target: Neu5Ac(a2-6)GalNAc(b1-4)GlcNAc6S
# Procedure, shortened: as §1
# [29] = biological target: Neu5Ac(a2-6)GlcNAc(b1-4)GlcNAc
# Procedure, shortened: as §1
binder,measurement,setting,value
"a L Fucosidase (Streptosporangium roseum), D2B1P1_STRRD (protein) MRRKLLLVPAVGLLVIGSIFATQPVASADTPPVYEPTVESLNSHPVPQWFNDDKFGIFIHWGAYSVPAWGPRGSYAEWYGNYMNAGGSATNAHHKATYGQDFNYDAFLQQWKAEKFDPADWVKLFKDAGAKYFVLTSKHHEGMALWDSKSSGRDSVDLGPGRDLAKELFDAARKDEAKLKAGFYYSLYEWYNPAYTGRPATNPYTGAEIPYTGAPGGGDYVKDYMLPQMRELIDGYDPDIIWCDGQWEKPASYWNTAGVIADYYNKALNSGKEVAVANRCKIQSGNLDSPELDFQTPEYTVKPDIDPVKWESSRGIAHSYGYNQNEPEEDHLTSDQLVDSLVDIVSKNGNLLLDIGPKADGTIPEIQRQRLLDIGAWLKANGEAIYGTTYWNRAEEKGGPDDVRYTAKDATLYATALKWPGEQLTLGADLPVDHSTRITMLGSGARLSWSRDEQGRVVVNTPQEAGKHAYVFKIETPGVRSLLRTSSSLAKEIAPGRTISGELTVTNPGKRHTPATKLSLTVPQGWTATLGAPRVRPLGPGESVKVPISVSAPEGVAPAPYTLGLYQRTGRMGTTTALPLTVNRPNLSLGKPATQKSTGYDAPASRAVDGNTGGDWSAGSTTHTAEPEKQAWWQVDLGASARLDSVDVWNRLDCCADRLKDFWVMASDQPFTTDDLDQARTAPGVTAVHVGEQAGSPSKVKLPEGTRGRYVRIQLASPSNPLSLAEVQVRGSMARPNLSLGKPATQKSTGYDAPASRAVDGNTGGDWSAGSTTHTAEPEKQAWWQVDLGASARLDSVDVWNRLDCCADRLKDFWVMASDQPFTTDDLDQARTAPGVTAVHVGEQAGSPSKVKLPEGTRGRYVRIQLASPSNPLSLAEVQVRLEHHHHHHS",glycan array binding signal (z-score),[1],-0.406
same,glycan array binding signal (z-score),[2],0.664
same,glycan array binding signal (z-score),[3],-0.03
same,glycan array binding signal (z-score),[4],-0.487
same,glycan array binding signal (z-score),[5],-0.48
same,glycan array binding signal (z-score),[6],-0.503
same,glycan array binding signal (z-score),[7],-0.114
same,glycan array binding signal (z-score),[8],-0.484
same,glycan array binding signal (z-score),[9],-0.344
same,glycan array binding signal (z-score),[10],-0.202
same,glycan array binding signal (z-score),[11],-0.312
same,glycan array binding signal (z-score),[12],-0.025
same,glycan array binding signal (z-score),[13],-0.475
same,glycan array binding signal (z-score),[14],0.509
same,glycan array binding signal (z-score),[15],0.011
same,glycan array binding signal (z-score),[16],0.592
same,glycan array binding signal (z-score),[17],0.041
same,glycan array binding signal (z-score),[18],-0.028
same,glycan array binding signal (z-score),[19],-0.127
same,glycan array binding signal (z-score),[20],-0.416
same,glycan array binding signal (z-score),[21],1.01
same,glycan array binding signal (z-score),[22],-0.198
same,glycan array binding signal (z-score),[23],-0.221
same,glycan array binding signal (z-score),[24],-0.507
same,glycan array binding signal (z-score),[25],-0.302
same,glycan array binding signal (z-score),[26],0.326
same,glycan array binding signal (z-score),Neu5Ac(a2-6)GalNAc,-0.523
same,glycan array binding signal (z-score),[27],-0.505
same,glycan array binding signal (z-score),[28],-0.481
same,glycan array binding signal (z-score),[29],-0.55
